# Data as given in PubChem BioAssay AID1346428 (National Center for Advancing Translational Sciences (NCATS), 2018).
# In all, about 48,000 compounds went through this assay and about 1,200 (2.5%) were called active. Not shown: some 2% with an inconclusive outcome.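 The calls were made as follows: active = activation of at least 60% and not above a set upper limit (about 1 call in 100 departs from these limits); inconclusive = activation of 40% to 60%, or above that upper limit; inactive = activation under 40%.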 This is one part of the list.
# Molecular target: Probable G-protein coupled receptor 32 (Homo sapiens) (UniProt O75388)
# Chain of UniProt O75388 (O75388 whole entry, looked up): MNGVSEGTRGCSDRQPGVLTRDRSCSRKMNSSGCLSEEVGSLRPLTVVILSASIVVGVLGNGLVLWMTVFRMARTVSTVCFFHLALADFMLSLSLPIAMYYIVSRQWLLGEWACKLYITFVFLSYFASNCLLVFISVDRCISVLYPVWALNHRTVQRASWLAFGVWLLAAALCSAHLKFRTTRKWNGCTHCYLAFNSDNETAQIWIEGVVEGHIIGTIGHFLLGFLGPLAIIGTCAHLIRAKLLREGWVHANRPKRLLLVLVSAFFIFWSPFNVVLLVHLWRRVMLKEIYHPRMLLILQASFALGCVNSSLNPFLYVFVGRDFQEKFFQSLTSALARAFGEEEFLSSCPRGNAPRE
# Assay: qHTS for Agonists of Human Resolvin D1 Receptor DRV1; also: 0% is about no effect
# Conditions: CHO-K1 GPR32 beta-arrestin PathHunter luminescence, 90 min; at 76.9 µM; stronger effect = higher value; zero percent set by DMSO-only wells
# Method in brief: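 Step 1: seed CHO-K1 GPR32 beta-arrestin cells, 2,500/well, overnight at 37 °C. Step 2: add compounds, 90 min at 37 °C. Step 3: detection reagent, 1 h ambient, then luminescence.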
row,Compound,activation
1,COc1cc(NC(=O)CCn2c(=O)oc3ccccc32)cc(OC)c1OC,inactive: 5.7%
2,CSc1ccc(NC(=O)C2CCN(c3ncccn3)CC2)cc1,inactive: 3.74%
3,CCN1CCN(c2ncc3c(n2)CCN(CC(C)C)C3)CC1,inactive: -12%
4,COc1ccc(N(Cc2cccs2)C(=O)COc2cccc(C)c2C)cc1,inactive: -17.4%
5,Cc1cccc(CC(=O)N2CC(=O)Nc3ccc(C)cc3C2c2ccc(F)cc2)c1 (stereo unspecified),inactive: -26.3%
6,CCOc1ccc(-n2ccnc2SCC(=O)Nc2cccc3ccccc23)cc1,inactive: -7.89%
7,COc1ccc(Br)cc1CNC(=O)c1ccc2nc(C(C)C)oc2c1,inactive: -11.1%
8,NC(=O)NS(=O)(=O)c1ccc(Cl)cc1,inactive: 39.6%
9,Cc1cc(S(=O)(=O)Nc2ccc3oc4c(c3c2)CCCC4)ccc1Cl,inactive: 49.3%
10,O=C1CN(C(=O)Cc2ccccc2)C(c2ccc(F)cc2)c2cc(Br)ccc2N1 (stereo unspecified),inactive: -27.5%
11,CCOc1ccc(CCNCc2c(C(=O)O)c(C)n(Cc3ccccc3F)c2C)cc1,inactive: -21.5%
12,Cc1ccc(S(=O)(=O)N2CCc3cc(C(=O)Nc4ccc(Cl)cc4C)ccc32)cc1,inactive: 12.9%
13,CCCc1nn2c(=O)cc(COC(=O)c3ccc(NC(=O)COc4ccccc4F)cc3)nc2s1,inactive: -10.2%
14,COc1ccc(NS(=O)(=O)c2ccc3c(c2)[C@H]2C=CC[C@H]2[C@@H](c2ccc(C(=O)O)cc2)N3)cc1,inactive: -9.57%
15,Cc1noc(-c2ccc(-c3noc(-c4ccc([N+](=O)[O-])c(C)c4)n3)cc2)n1,inactive: -4.25%
16,CC(C)c1ccc(N2C(=O)N(Cc3cccc([N+](=O)[O-])c3)c3ccccc3S2(=O)=O)cc1,inactive: -15.7%
17,CCOc1ccc(NC(=O)[C@@H](c2ccccc2)N2Cc3ccccc3C2=O)cc1,inactive: -21.4%
18,Cc1cccn2c(=O)c(C(=O)N3CCN(c4ccc(Cl)cc4)CC3)cnc12,inactive: 0.74%
19,COc1cc(C2C(C(=O)Nc3ccccc3C)=C(C)Nc3nc(SCc4cc(C)ccc4C)nn32)ccc1O (stereo unspecified),inactive: -26.1%
20,CCN(CC)c1ccc(NC(=O)CCc2c(C)nc3ncnn3c2C)c(C)c1,inactive: -2.71%
21,O=S(=O)(NCCc1csc2nc(-c3ccccc3)nn12)c1ccc(Oc2ccccc2)cc1,inactive: 2.36%
22,Cc1ccc(-n2nnnc2CNC(=O)C2CC(=O)N(c3ccccc3)C2)cc1C (stereo unspecified),inactive: -1.65%
23,CCOC(=O)c1cc2c(=O)n3ccccc3nc2n(Cc2ccco2)c1=NC(=O)c1cccc(Br)c1,inactive: -20.5%
24,Cc1ccc(Cl)cc1N1CCN(C(=O)c2noc3c2CCCC3)CC1,inactive: -22%
25,COc1ccc(Cl)cc1NC(=O)Cn1nnc2sc(-c3ccccc3)cc2c1=O,inactive: 2.86%
26,COc1ccc(-c2cc(C(=O)Nc3cc(C)nn3-c3ccccc3)no2)cc1OC,inactive: -12.2%

row,Compound,activation
1,CCCCSc1nc(-c2cccc(OC)c2)nc2c1Cc1c(CO)cnc(C)c1O2,inactive: 14.1%
2,COc1c2occc2c(OC)c2c(=O)cc(C)oc12,inactive: 5.2%
3,CC1(C)S[C@@H]2[C@H](NC(=O)Cc3ccccc3)C(=O)N2[C@H]1C(=O)O (tested in a mixture with another compound),inactive: -0.751%
4,CC1CCCCN1C(=O)CN1CCSc2ccccc21 (stereo unspecified),inactive: 2.64%
5,CCC(=O)Nc1ccc(CC)cc1-c1nc2ccccc2n(CC(=O)c2ccc(OC)cc2)c1=O,inactive: -8.99%
6,CC(C)C[C@H](NC(=O)CNC(=O)[C@H](Cc1ccc(O)cc1)NC(=O)[C@H](CO)NC(=O)[C@H](Cc1c[nH]c2ccccc12)NC(=O)[C@H](Cc1cnc[nH]1)NC(=O)[C@@H]1CCC(=O)N1)C(=O)N[C@@H](CCCN=C(N)N)C(=O)N1CCC[C@H]1C(=O)NCC(N)=O (stereo in doubt),inactive: 13.5%
7,Cc1c(Cl)cccc1NC(=O)c1oc2ccc(S(=O)(=O)N3CCC4(CC3)OCCO4)cc2c1C,inactive: 35.3%
8,O=S(=O)(NCc1ccc(F)cc1)c1ccc2[nH]c3c(c2c1)CCCC3,active: 118%
9,CCc1nonc1NC(=O)c1oc2cc(C)c(C)cc2c1C,inactive: 41.9%
10,Cc1ccc(-c2cc(NC(=O)c3cccc(C)c3)on2)cc1,inactive: 39.4%
11,COc1ccc(C(=O)Oc2ccc(C(c3c(C)[nH][nH]c3=O)c3c(C)[nH][nH]c3=O)cc2)cc1,inactive: -31%
12,COc1ccc(NC(=O)C2Cc3ccccc3CN2S(=O)(=O)c2ccccc2)cc1OC (stereo unspecified),inactive: -7%
13,CCc1cccc(-n2c(=O)c3cccnc3n2CC(=O)Nc2ccc(OC)c(Cl)c2)c1,inactive: -5.98%
14,CCc1ccccc1NC(=O)CCCn1c(=O)c2cccn2c2ccccc21,inactive: -22.4%
15,COc1cccc(-n2c(SCC(N)=O)nc3c(oc4ccccc43)c2=O)c1,inactive: -15.2%
16,COc1cccc(CNC(=O)c2cc(=O)[nH]c3ccc(S(=O)(=O)N4CCCC4)cc23)c1,inactive: 43.8%
17,Cc1ccccc1NC(=O)CCn1nc(-c2ccc(Cl)cc2)c2ccccc2c1=O,inactive: -14.7%
18,COc1ccc(CNC(=O)CC2Oc3ccc(C)cc3NC2=O)cc1 (stereo unspecified),inactive: -7.56%
19,COc1cccc(CC(=O)Nc2ccc3nc(Nc4cccc(C(F)(F)F)c4)cc(C)c3c2)c1,inactive: 28.8%
20,COC(=O)c1cc2oc3ccccc3c2n1CC(=O)Nc1ccc(F)c(Cl)c1,inactive: -16.1%
21,Cc1ccc(S(=O)(=O)N2CCc3cc(C(=O)Nc4c(C)cccc4C(C)C)ccc32)cc1,inactive: 2.41%
22,Cc1cccc(Cn2c(CN3CCCC(C)C3)nc3c2c(=O)n(C)c(=O)n3C)c1 (stereo unspecified),inactive: -13.8%
23,CCOc1ccc(CCNC(=O)c2nn(C)c3c2CSc2ccc(C)cc2-3)cc1OCC,inactive: -18.5%
24,COc1ccc(CCNc2nc(SCc3cccc(Cl)c3)nc3ccccc23)cc1OC,inactive: -15.9%
25,COCCCNC(=O)c1ccc(-n2c(-c3ccccc3)cc3c2CCCCC3)cc1,inactive: -15.9%
